In all, about 230,000 compounds went through this assay and about 3,600 (1.6%) were called active. Inconclusive results, whose numbers are uncertain, are shown with a selection of clear calls. The call rests on the fitted dose curve; in most records, active means well fitted inhibition curve with a large enough effect (not every such curve was filed as active); inconclusive means small, poorly fitted or top-dose-only effect, or another doubt; inactive means no such curve, though single readings can be large or run the other way. Potencies of inconclusive entries are doubtful fits and often do not repeat.
Target: Lysine-specific demethylase 4E (Homo sapiens) (UniProt B2RXH2)
Assay: qHTS Assay for Inhibitors of Human Jumonji Domain Containing 2E (JMJD2E)
Conditions: JMJD2E catalytic domain, FDH-coupled NADH fluorescence (FDH is formaldehyde dehydrogenase); series mostly up to 57.1 µM; activity change, negative = inhibition: at the top concentration
Further: nearly all actives have a fitted effect of over 50% in size.
Potency means the concentration at half of the fitted maximal effect; tags describe the fitted curve by direction and shape.
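Wherever activity change, negative = inhibition is given: 0% = wells with enzyme and -100% = buffer wells without enzyme.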

Sequence of UniProt B2RXH2 (B2RXH2 whole entry, looked up, the tested form may be a part): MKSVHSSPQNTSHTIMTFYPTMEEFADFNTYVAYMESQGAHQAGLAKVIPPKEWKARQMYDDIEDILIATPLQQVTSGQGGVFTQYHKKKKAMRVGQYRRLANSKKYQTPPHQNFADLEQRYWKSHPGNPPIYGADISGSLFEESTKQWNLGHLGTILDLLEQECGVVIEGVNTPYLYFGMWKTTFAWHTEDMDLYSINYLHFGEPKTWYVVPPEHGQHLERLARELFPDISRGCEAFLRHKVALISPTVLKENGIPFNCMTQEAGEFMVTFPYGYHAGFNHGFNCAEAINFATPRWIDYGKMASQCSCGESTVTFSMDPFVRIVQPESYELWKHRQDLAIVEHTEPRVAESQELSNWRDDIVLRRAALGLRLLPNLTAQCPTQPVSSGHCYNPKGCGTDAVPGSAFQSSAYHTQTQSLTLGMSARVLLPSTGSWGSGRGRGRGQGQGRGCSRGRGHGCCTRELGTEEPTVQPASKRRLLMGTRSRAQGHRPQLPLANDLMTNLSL

| SMILES | Potency | activity change, negative = inhibition |
| --- | --- | --- |
| O=C(OCC(=O)c1ccccc1Br)c1ccncc1 | inconclusive: 14.1 µM [inhibitor, partial curve] |  |
| COC(=O)N/N=C/c1cc(C)n(-c2cccc3ccccc23)c1C | inconclusive: 22.4 µM [inhibitor, partial curve] |  |
| CC1=C(C(=O)OC2CCCCCC2)C(c2ccc(C)o2)C2=C(CCCC2=O)N1 (stereo not given) |  | inactive: 5.78% |
| Nn1c(SCc2cccc3ccccc23)nnc1-c1ccco1 |  | inactive: 4.86% |
| CN(C)S(=O)(=O)c1ccc(NC(=O)c2cc(-c3cccs3)nc3ccccc23)cc1 | inconclusive: 31.6 µM [inhibitor, partial curve] |  |
| COC(=O)C1Sc2[nH]c(=O)sc2C(c2ccc(Cl)cc2)C1C(=O)OC (stereo not given) |  | inactive: -3.56% |
| CCOC(=O)CSc1nc(=O)n2cc(C)ccc2n1 | inconclusive: 25.1 µM [inhibitor, partial curve] |  |
| O=C1CC(N2CCC(Cc3ccccc3)CC2)C(=O)N1CCc1ccccc1 (stereo not given) |  | inactive: 4.68% |
| COc1cccc(/C=C/C(=O)OCC(=O)Nc2cccc(S(=O)(=O)N3CCCCC3)c2)c1OC | inconclusive: 31.6 µM [inhibitor, partial curve] |  |
| Cc1c(Cl)cccc1NC(=S)Nn1cnnc1 |  | inactive: -6.21% |
| COc1cc2c(cc1OC)C1=C(C#N)CN(CC(=O)O)CN1CC2 | inconclusive: 39.8 µM [inhibitor, single point] |  |
| CC(C)c1cc(-c2n[nH]c(=S)n2Cc2ccccc2)cs1 | inconclusive: 31.6 µM [inhibitor, single point] |  |
| O=C(NC1CC2CCC1C2)c1ccc(CN2CCOCC2)cc1 (stereo not given) | inconclusive: 28.2 µM [inhibitor, single point] |  |
| Cc1oc(-c2cccs2)nc1CN1CCC(C(=O)N2CCCC2)CC1 | inconclusive: 28.2 µM [inhibitor, single point] |  |
| O=C(CCc1nnc(-c2ccc3c(c2)OCO3)o1)N1CCC(c2ccc(F)cc2)C1 (stereo not given) | inconclusive: 25.1 µM [inhibitor, single point] |  |
| C/C(=C\C(=O)c1sccc1Cl)N(C)C |  | inactive: -10.9% |
| Cc1cc2n(n1)C(c1ccc(O)cc1)Nc1ccccc1-2 (stereo not given) | inconclusive: 28.2 µM [inhibitor, single point] |  |
| O=[N+]([O-])c1ccc(CCNc2cccc3ccccc23)c([N+](=O)[O-])c1 | inconclusive: 15.8 µM [inhibitor, partial curve] |  |
| CS(=O)(=O)Nc1cccc(-c2cn3ccccc3n2)c1 | inconclusive: 28.2 µM [inhibitor, partial curve] |  |
| Cc1ccc(CNC(=O)c2cc3c(s2)CN(Cc2ccccc2)C3)cc1 | inconclusive: 3.98 µM [inhibitor, single point] |  |
| CCCCNc1nc(C)nc2c1nc(-c1ccccc1)n2CCN1CCCCC1 | inconclusive: 31.6 µM [inhibitor, partial curve] |  |
| COc1ccc(NC(=O)c2cnc(C)cn2)cc1-n1cnnn1 | inconclusive: 39.8 µM [inhibitor, single point] |  |
| COC(=O)c1ccc(NC(=O)CSC2=Nc3ccccc3C3CC=NN23)cc1 (stereo not given) | inconclusive: 35.5 µM [inhibitor, single point] |  |

| SMILES | Potency | activity change, negative = inhibition |
| --- | --- | --- |
| O=c1c2ccccc2oc2nc3ccn(Cc4ccncc4)c(=O)c3cc12 | inconclusive: 2.82 µM [inhibitor, partial curve] |  |
| COc1ccc(Cl)cc1NC(=O)Nc1cccc([N+](=O)[O-])c1C | inconclusive: 35.5 µM [inhibitor, single point] |  |
| CCc1sc(C(C2C(=O)CC(C)(C)CC2=O)C2C(=O)CC(C)(C)CC2=O)cc1[N+](=O)[O-] |  | inactive: -18.5% |
| CCOc1ccc(-n2c(O)c(/C=N/c3ccnn3Cc3ccncc3)c3ccccc3c2=O)cc1 | inconclusive: 12.6 µM [inhibitor, partial curve] |  |
| Clc1ccccc1Nc1ncnc2c1nnn2Cc1ccccc1 |  | inactive: -13.6% |
| COc1ccc2nc(N/C(N)=N/C(=S)Nc3cccc(C)c3)nc(C)c2c1 | inconclusive: 39.8 µM [inhibitor, single point] |  |
| Cc1cccc(/N=C/c2c(O)c3ccccc3oc2=O)n1 | inconclusive: 31.6 µM [inhibitor, single point] |  |
| Cc1cc(C(=O)COc2cccnc2[N+](=O)[O-])c(C)n1-c1ccccc1 |  | inactive: -7.06% |
| OCC1CCCCN1C(=S)Nc1cccc(Cl)c1 (stereo not given) |  | inactive: 10.9% |
| CC(c1ccc(F)cc1)n1cc(C(=O)NCc2ccccn2)nn1 (stereo not given) |  | inactive: 24.2% |
| CCSC(=O)CCCCCCCCCCCO | inconclusive: 39.8 µM [inhibitor, single point] |  |
| COCCn1c(=O)[nH]c(=O)c2c1nc(-c1ccc(-c3ccc(Cl)cc3[N+](=O)[O-])o1)n2Cc1ccccc1 | inconclusive: 15.8 µM [inhibitor, partial curve] |  |
| CC1(C)CC(=O)C/C(=N/Nc2nc3ccccc3s2)C1 |  | inactive: -1.39% |
| CC(C)OC(=O)CSc1nc2cccnc2n1C1CCCCC1 |  | inactive: 2.81% |
| Nc1nc(N)c(N=Nc2ccc(SCC(=O)O)cc2)c(=O)[nH]1 | inconclusive: 39.8 µM [inhibitor, single point] |  |
| Cc1cc2cc(C(=O)N3CCc4c([nH]c5ccccc45)C3c3ccccn3)ccc2o1 (stereo not given) | inconclusive: 28.2 µM [inhibitor, single point] |  |
| O=C(Nc1ccccc1)N1N=C(c2cccs2)CC1c1cccs1 (stereo not given) | inconclusive: 31.6 µM [inhibitor, partial curve] |  |
| CCNc1nc(Oc2c(Cl)cccc2Cl)cc(C(F)(F)F)n1 | inconclusive: 39.8 µM [inhibitor, single point] |  |
| CCc1c(C)c2cc(Cl)c(O)c(CN(C)C)c2oc1=O | inconclusive: 2.51 µM [inhibitor, partial curve] |  |
| CCCC(=O)Nc1ccc2nc(SCC(=O)N3CCCC3)sc2c1 | inconclusive: 39.8 µM [inhibitor, single point] |  |
| O=C(Nc1ccccc1N1CCN(C(=O)c2ccc(Cl)cc2)CC1)c1ccc2c(c1)OCO2 | inconclusive: 31.6 µM [inhibitor, single point] |  |
| CCOc1ccc(-c2cnc3ccccc3n2)cc1 | inconclusive: 28.2 µM [inhibitor, partial curve] |  |
